# According to the antibiotic and cytotoxicity screens of Wong et al. (2023):
# The list shows a part of the results.
# Assays:
# HSkMC = human skeletal muscle cells; test: cytotoxicity call (relative viability < 0.9); details: 10 µM
# HepG2 = test: cytotoxicity call (relative viability < 0.9); details: 10 µM
# S. aureus RN4220 = test: growth inhibition call (relative growth <= 0.2); details: 50 µM
Compound,cytotoxicity call (HSkMC),cytotoxicity call (HepG2),growth inhibition call (S. aureus RN4220)
Cc1ccc(S(=O)(=O)N(C)C[C@H]2OCCCC[C@H](C)Oc3ccc(NC(=O)c4ccccc4)cc3C(=O)N([C@H](C)CO)C[C@H]2C)cc1,inactive,inactive,inactive
CSc1ccc2c(c1)N(CCC1CCCCN1C)c1ccccc1S2.Cl (configuration not stated),inactive,active,inactive
CC(C)NC(=O)Nc1cccc2c1O[C@H](CN(C)Cc1ccc(Oc3ccccc3)cc1)[C@H](C)CN([C@H](C)CO)C2=O,inactive,inactive,inactive
C[C@H](CO)N1C[C@H](C)[C@@H](CN(C)C(=O)Nc2ccc(F)cc2)Oc2c(NC(=O)c3cnccn3)cccc2C1=O,inactive,inactive,inactive
COc1cc(CN(CCc2ccccn2)C(=O)CCCCc2ccccc2)ccc1OCc1ccccc1,inactive,inactive,inactive
COc1cccc(S(=O)(=O)N(C)C[C@H]2Oc3ncc(C#CCC(C)C)cc3C(=O)N([C@@H](C)CO)C[C@H]2C)c1,inactive,inactive,inactive
Cc1noc(C)c1S(=O)(=O)Nc1ccc2c(c1)C(=O)N([C@H](C)CO)C[C@@H](C)[C@@H](CN(C)Cc1ccccc1)OCCCC[C@H](C)O2,inactive,inactive,inactive
NS(=O)(=O)c1ccc(F)c(C(=O)O)c1,inactive,inactive,inactive
C[C@H]1CN([C@@H](C)CO)C(=O)CCCn2cc(nn2)CO[C@@H]1CN(C)S(=O)(=O)c1cn(C)cn1,inactive,inactive,inactive
C[C@@H]1CN([C@@H](C)CO)C(=O)c2cc(NC(=O)Cc3ccccc3)ccc2O[C@H]1CN(C)Cc1ccc(C(F)(F)F)cc1,inactive,inactive,inactive
C[C@@H]1CN([C@@H](C)CO)C(=O)c2cc(NC(=O)Nc3ccccc3)ccc2O[C@@H](C)CCCCO[C@@H]1CN(C)Cc1ccc(C(=O)O)cc1,inactive,inactive,inactive
C[C@@H]1CCCCO[C@H](CN(C)Cc2ccncc2)[C@H](C)CN([C@H](C)CO)C(=O)c2cc(NC(=O)Nc3ccc4c(c3)OCO4)ccc2O1,inactive,inactive,inactive
C[C@H](CO)N1C[C@H](C)[C@@H](CN(C)Cc2ccc(Cl)c(Cl)c2)OCCCC[C@H](C)Oc2ccc(NS(=O)(=O)c3ccc(F)cc3)cc2C1=O,inactive,inactive,inactive
C[C@@H]1CN([C@H](C)CO)S(=O)(=O)c2ccc(-c3ccccc3F)cc2O[C@@H]1CN(C)Cc1cncnc1,inactive,inactive,inactive
Cc1noc(C)c1NC(=O)Nc1ccc2c(c1)C(=O)N([C@@H](C)CO)C[C@@H](C)[C@@H](CN(C)Cc1ccncc1)OCCCC[C@@H](C)O2,inactive,inactive,inactive
CN(C)CC#Cc1cncc(C(=O)NN)c1,inactive,inactive,inactive
O=C(C[C@H]1CC[C@H]2[C@@H](COC[C@H](O)CN2C(=O)Nc2ccc(Cl)cc2)O1)NC1Cc2ccccc2C1,inactive,inactive,active
C[C@@H]1CCCCO[C@H](CN(C)C(=O)Nc2ccc3c(c2)OCO3)[C@@H](C)CN([C@H](C)CO)C(=O)c2cc(NS(=O)(=O)c3cccs3)ccc2O1,inactive,inactive,inactive
C[C@@H]1CCCCO[C@@H](CN(C)S(=O)(=O)c2cn(C)cn2)[C@H](C)CN([C@@H](C)CO)C(=O)c2cc(N(C)C)ccc2O1,inactive,inactive,inactive
Nc1nnc(C2CC2)o1,inactive,inactive,inactive
C[C@@H]1CN([C@H](C)CO)C(=O)c2cccc(NS(=O)(=O)c3ccccc3)c2O[C@@H]1CN(C)CC1CC1,inactive,inactive,inactive
C[C@@H]1CN([C@@H](C)CO)C(=O)c2cc(NS(=O)(=O)c3cccs3)ccc2O[C@@H]1CN(C)S(=O)(=O)c1ccc(F)cc1,inactive,inactive,inactive
C[C@H](CO)N1C[C@H](C)[C@@H](CN(C)C(=O)Nc2ccccc2)Oc2c(NC(=O)CCCCCC(=O)Nc3ccccc3N)cccc2C1=O,inactive,inactive,inactive
C[C@@H]1CN([C@@H](C)CO)C(=O)c2cccc(NC(=O)c3cnccn3)c2O[C@@H]1CN(C)S(=O)(=O)c1cccs1,inactive,inactive,inactive
C[C@@H]1CCCCO[C@H](CN(C)C(=O)CCC(F)(F)F)[C@@H](C)CN([C@H](C)CO)C(=O)c2cc(NS(=O)(=O)c3ccc(F)cc3)ccc2O1,inactive,inactive,inactive
C[C@@H]1CCCCO[C@@H](CN(C)Cc2ccc(C(=O)O)cc2)[C@@H](C)CN([C@H](C)CO)C(=O)c2cc(NS(=O)(=O)c3ccccc3)ccc2O1,inactive,inactive,inactive
COCC(=O)N(C)C[C@@H]1Oc2cc(C#Cc3ccccc3)ccc2S(=O)(=O)N([C@H](C)CO)C[C@H]1C,inactive,inactive,inactive

Compound,cytotoxicity call (HSkMC),cytotoxicity call (HepG2),growth inhibition call (S. aureus RN4220)
C[C@H]1CN([C@@H](C)CO)S(=O)(=O)c2ccc(Br)cc2O[C@@H]1CN(C)C(=O)C1CCOCC1,inactive,inactive,inactive
C[C@H](CO)N1C[C@H](C)[C@@H](CN(C)C(=O)NC2CCCCC2)Oc2c(NC(=O)c3ccc(-c4nccs4)cc3)cccc2C1=O,inactive,inactive,inactive
O=C1c2ccccc2[C@@]2(Cc3ccccc3N(CC(F)(F)F)C2=O)[C@H](c2ccc(CO)cc2)N1C1CCCCC1,inactive,inactive,inactive
C=C[C@@H]1C[C@]1(NC(=O)[C@@H]1C[C@@H]2CN1C(=O)[C@H](C(C)(C)C)NC(=O)O[C@@H]1C[C@H]1CCCCCc1nc3ccc(OC)cc3nc1O2)C(=O)NS(=O)(=O)C1CC1,inactive,inactive,inactive
O=C(CN1CCOCC1)NCC[C@H]1CC[C@@H](NS(=O)(=O)c2ccc(F)cc2)[C@@H](CO)O1,inactive,inactive,inactive
COc1ccc(NC(=O)N(C)C[C@H]2Oc3ccc(NC(=O)CCCCCC(=O)Nc4ccccc4N)cc3C(=O)N([C@H](C)CO)C[C@H]2C)cc1,inactive,inactive,inactive
CC(C)NC(=O)N(C)C[C@@H]1Oc2cc(-c3ccccc3F)ccc2S(=O)(=O)N([C@@H](C)CO)C[C@H]1C,inactive,inactive,inactive
Cc1noc(C)c1S(=O)(=O)N(C)C[C@@H]1OCc2cn(nn2)CCCC(=O)N([C@@H](C)CO)C[C@@H]1C,inactive,inactive,inactive
C[C@H](CO)N1C[C@H](C)[C@@H](CN(C)C(=O)NC2CCCCC2)OCCCC[C@H](C)Oc2ccc(NS(=O)(=O)c3ccc(Cl)cc3)cc2C1=O,inactive,inactive,inactive
C[C@@H]1CN([C@@H](C)CO)C(=O)c2cccc(NC(=O)C3CC3)c2O[C@H]1CN(C)Cc1ccc2c(c1)OCO2,inactive,inactive,inactive
Cc1noc(C)c1NC(=O)N(C)C[C@@H]1Oc2c(NC(=O)C3CC3)cccc2C(=O)N([C@H](C)CO)C[C@H]1C,inactive,inactive,inactive
C[C@@H]1CN([C@H](C)CO)C(=O)c2cc(NC(=O)C3CCCCC3)ccc2O[C@@H](C)CCCCO[C@@H]1CN(C)Cc1ccc(C(F)(F)F)cc1,inactive,inactive,inactive
C[C@H](CO)N1C[C@H](C)[C@H](CN(C)Cc2ccc(C(=O)O)cc2)Oc2c(NC(=O)Nc3cccc4ccccc34)cccc2C1=O,inactive,inactive,inactive
CCCCCN(CCCCC)C(=O)C(CCC(=O)[O-])NC(=O)c1ccc(Cl)c(Cl)c1.[Na+] (configuration not stated),inactive,inactive,inactive
CC(C)C(N)C(=O)OCC(CO)OCn1cnc2c(=O)[nH]c(N)nc21.Cl (configuration not stated),inactive,inactive,inactive
Cc1noc(C)c1S(=O)(=O)N(C)C[C@H]1OCc2cnnn2CCCC(=O)N([C@H](C)CO)C[C@H]1C,inactive,inactive,inactive
C[C@@H]1CN([C@H](C)CO)C(=O)c2cc(NC(=O)c3ccncc3)ccc2O[C@@H](C)CCCCO[C@@H]1CN(C)C(=O)Nc1cccc2ccccc12,inactive,inactive,inactive
C[C@@H]1CN([C@@H](C)CO)C(=O)c2cc(NC(=O)Cn3cnnn3)ccc2O[C@@H]1CN(C)Cc1ccc(Oc2ccccc2)cc1,inactive,inactive,inactive
Cc1noc(C)c1NC(=O)Nc1ccc2c(c1)CC(=O)N([C@H](C)CO)C[C@H](C)[C@@H](CN(C)Cc1ccc(Cl)c(Cl)c1)O2,inactive,inactive,inactive
COC[C@H]1CCCNC1,inactive,inactive,inactive
Cc1ccc(S(=O)(=O)N(C)C[C@@H]2Oc3ccc(NS(=O)(=O)c4cn(C)cn4)cc3CC(=O)N([C@@H](C)CO)C[C@@H]2C)cc1,inactive,inactive,inactive
COc1ccc(S(=O)(=O)N2C[C@H](O)COC[C@@H]3O[C@@H](CC(=O)N[C@H]4CCN(Cc5ccccc5)C4)CC[C@H]32)cc1,inactive,inactive,inactive
CC(C)(C)[S@](=O)N1Cc2cc(C(=O)N3CCCCC3)nc(-c3cccc(-c4ccccc4F)c3)c2[C@@H]1CCO,inactive,inactive,inactive
C[C@H](CO)N1C[C@H](C)[C@@H](CN(C)C(=O)CCCN(C)C)OCCCC[C@H](C)Oc2ccc(NS(=O)(=O)c3cn(C)cn3)cc2C1=O,inactive,inactive,inactive
COc1ccc2cc1Oc1ccc(cc1)C[C@H]1c3c(cc4c(c3Oc3cc5c(cc3OC)CCN(C)[C@@H]5C2)OCO4)CCN1C,inactive,inactive,inactive
COc1ccc(NC(=O)Nc2ccc3c(c2)C(=O)N([C@H](C)CO)C[C@@H](C)[C@H](CN(C)C(=O)Nc2c(C)noc2C)OCCCC[C@@H](C)O3)cc1,inactive,inactive,inactive
C[C@H](CO)N1C[C@H](C)[C@@H](CN(C)Cc2ccc(C(=O)O)cc2)OCc2ccccc2-c2c(n(C)c3ccccc23)C1=O,inactive,inactive,inactive
